This is an account of results in ChEMBL document CHEMBL4888484, “Replenishing the malaria drug discovery pipeline: Screening and hit evaluation of the MMV Hit Generation Library 1 (HGL1) against asexual blood stage Plasmodium falciparum ,using a nano luciferase reporter read-out” (2022).

Each structure is given as a SMILES string. Screen size: about 150,000 compounds; about 540 (0.36%) showed an effect of 50% or more. The list shows a part of the results.

One may read the % Inhibition as the relative decrease from the control value, in per cent.

The experiment deals with Plasmodium falciparum. As to the kind of experiment: Primary screen in NF54 nanoGlo assay, in single point, at 2uM, 72h; a lower Z score goes with more inhibition. The format is functional, Erythrocyte. As to conditions: timepoint 72 hour.
Regarding `COc1ccc(NC(=O)N2CC(c3nc4cc(C)ccc4[nH]3)C2)cc1`, the “% Inhibition” value is recorded as 3% and the Z score is on record as -0.43.
Consider `Cc1nc(NC(=O)c2ccc(C)c(Oc3ccncc3)c2)n[nH]1`, for which the “% Inhibition” value is listed as -2% and the Z score stood at 0.24.
`O=C(C[C@H]1CCC(F)(F)C1)NCc1nc2ccccn2c1Cl`: the “% Inhibition” value was -12% and the Z score was found to be 1.44.
In the case of `Fc1ccc(CN2CCC[C@H](CN3CCOCC3)C2)c(Cl)c1`, the “% Inhibition” value was -12% and the Z score is 2.35.
As to `CC(=O)Nc1ccc(NC(=O)Nc2cccc(C3OCCO3)c2)cc1`, the “% Inhibition” value is reported as -32% and the Z score was 3.77.
Take `O=C(Nc1cccnc1-n1cc(Cl)cn1)[C@H]1CC(=O)N(c2ccccc2)C1`: the “% Inhibition” value is recorded as 6% and the Z score is listed as -0.99.
In the same order, the values of `CCNC(=O)c1cc(NCCc2nccn2Cc2ccccc2)ccn1` are -9% and 0.95.
For the compound `CCn1cc(S(=O)(=O)NCCc2cn(CC(C)C)c3ncccc23)cn1`, the “% Inhibition” value is on record as -2% and the Z score was 0.3.
On to `CCc1ccccc1NC(=O)CN(C)Cc1nc(-c2ccco2)no1`, for which the “% Inhibition” value was -2% and the Z score is on record as 0.25.
With `CC1CN(C)CCC1N(C)C(=O)C1CC12CCCc1ccccc12` (stereo unspecified), the “% Inhibition” value is -7% and the Z score came out at 0.7.
Turning to `Cc1n[nH]c(CN2CCC3(CCC(=O)N(Cc4ccccn4)C3)CC2)n1`, the “% Inhibition” value was 0% and the Z score was -0.04.
For the compound `Cc1cnc(C(C)N2CCCC(C)(F)C2)o1` (stereo unspecified), the “% Inhibition” value came out at 1% and the Z score is on record as -0.17.
Taken in the same sequence, the figures for `c1ccc2c(c1)OC[C@H](CNCc1cccc3cn[nH]c13)O2` were -8% and 0.86.
As for `COc1ccc(NC(=O)CN2CN(c3ccccc3)C3(CCN(C(=O)COc4ccccc4)CC3)C2=O)cc1`, the “% Inhibition” value is -6% and the Z score came to 1.03.
For `COCCc1noc(-c2ccc3oc(C)cc3c2)n1`, the “% Inhibition” value is -15% and the Z score stood at 1.48.
Turning to `Cc1cnn(CCNc2nc3ccccc3o2)c1`, the “% Inhibition” value is -6% and the Z score is 0.84.
As for `CCOc1ncccc1-c1nccnc1N1CCCC1`, the “% Inhibition” value worked out at 1% and the Z score is on record as -0.12.
With `CCc1noc(C(=O)N2CCN(C)[C@H](C(C)(C)C)C2)n1`, the “% Inhibition” value is recorded as -11% and the Z score is on record as 1.61.
With `Cc1ccc(CC(=O)N2CCC3(CC2)CN(C)C[C@@H]3c2noc(C3CC3)n2)cc1`, the “% Inhibition” value was -20% and the Z score is listed as 2.35.
Turning to `Cc1occc1C(=O)NC[C@](C)(NC(=O)c1ccoc1C)C(C)C`, the “% Inhibition” value was -13% and the Z score is recorded as 1.71.
With `CCc1nnc(CN(CC)C(=O)c2cnc(-c3cccnc3)nc2O)o1`, the “% Inhibition” value is reported as -6% and the Z score is listed as 0.5.
Taken in the same sequence, the figures for `Cc1ccc2c(C(=O)N3CCN(C4CCCCC4)CC3)cc(NC(=O)C(C)C)cc2n1` were -11% and 1.55.
Take `CC(C)(C)c1nn(-c2ccccc2)cc1C(=O)N1CCN(C[C@H]2COCCO2)CC1`: the “% Inhibition” value is on record as -10% and the Z score came to 1.36.
On to `Cc1noc(C)c1Cn1sc2ccccc2c1=O`, for which the “% Inhibition” value was -6% and the Z score stood at 0.84.
Consider `CC[C@@H](C#N)OC(=O)Cc1ccc(F)cc1`, for which the “% Inhibition” value is on record as -14% and the Z score is given as 2.17.
In the same order, the values of `Cc1noc(-c2cccn2Cc2c(F)cccc2Cl)n1` are 4% and -0.69.
Turning to `Cc1cc(C)n(CCN(C)c2cc(C3CC(O)C3)ncn2)n1` (stereo unspecified), the “% Inhibition” value was -1% and the Z score came to 0.11.
With `COc1ncccc1C(=O)N1CCc2nc(NC(=O)c3ccco3)sc2C1`, the “% Inhibition” value is on record as -12% and the Z score was 1.75.
Turning to `COCCNC(=O)c1ccc(OC)cc1OC1CCN(Cc2ccc3ccccc3c2)CC1`, the “% Inhibition” value was 0% and the Z score was 0.02.
As for `Cc1nnc(CN[C@H](c2ccccc2)C2(CO)CCC2)o1`, the “% Inhibition” value is reported as 21% and the Z score is reported as -2.61.
In the case of `Cc1cc(C)n([C@H]2[C@@H]3OC[C@@H](O3)[C@@H](NC(=O)Nc3cccc(F)c3)[C@@H]2O)n1`, the “% Inhibition” value is reported as 2% and the Z score is given as -0.33.
On to `N[C@@H](CO)c1cccc(Br)c1`, for which the “% Inhibition” value amounted to 30% and the Z score was -0.35.
As to `Cc1nccn1CCCCNC(=O)N1CCC2CCCCC21` (stereo unspecified), the “% Inhibition” value is reported as -2% and the Z score was 0.29.
As for `CCOc1cc(CN2CCC(O)(c3ccc4oc(C(=O)NCC(C)C)cc4c3)CC2)ccc1OC`, the “% Inhibition” value is recorded as 1% and the Z score was -0.08.
As for `COc1ccc(NC(=O)CCn2c(=O)[nH]c3cc(S(=O)(=O)N4CCCCC4)ccc32)cc1`, the “% Inhibition” value is -16% and the Z score is 2.09.
Take `C[C@@H](CC1CCOCC1)NCc1ccccc1`: the “% Inhibition” value is reported as -11% and the Z score was 1.16.
`CC(C)Oc1ncccc1NCc1ccc2cn[nH]c2c1`: the “% Inhibition” value was -5% and the Z score turned out to be 0.42.
With `O=C(c1n[nH]c2ccccc12)N1CCC(c2nc3ccccc3s2)CC1`, the “% Inhibition” value is given as -9% and the Z score is listed as 1.17.
For `CC(C)(C)c1ncc(CN2CCC3(CCC3)S(=O)(=O)CC2)cn1`, the “% Inhibition” value is listed as -8% and the Z score was found to be 1.36.
With `COCCN1C[C@@H](CNc2nccnc2N(C)C)CC1=O`, the “% Inhibition” value is given as -3% and the Z score came out at 0.34.
Consider `Brc1cc2c(cc1Cn1nnc(-c3ccncc3)n1)OCO2`, for which the “% Inhibition” value turned out to be 13% and the Z score is recorded as -1.6.
Consider `CCc1noc(CN2C(C)CC(C(=O)NC(C)CC)C3CCCCC32)n1` (stereo unspecified), for which the “% Inhibition” value was -6% and the Z score came to 1.05.
On to `Cc1noc(C)c1CN1CC[C@H](NC(=O)c2ccc[nH]2)[C@@H](O)C1`, for which the “% Inhibition” value is listed as -16% and the Z score is recorded as 2.71.
